The list shows a part of the results. Each Rep nickase domain was tested in vitro on the same pool of single strands at 3 µM enzyme and 37 °C for 1 h; the strands have 90 letters, of which the middle is given. Values are log2 of uncut reads against the no-enzyme pool; more negative means more cut, near 0 not cut, and no call is made. Because reads are shares of a total, they shift together, so uncut sequences can rise above 0 when many others are cut.
Legend:
Assay in all cases: uncleaved DNA left, log2 of reads against the no-enzyme library (log2 ratio); higher = less cleavage (more negative = more Rep cleavage of the k-mer); sequences stand for … in CTCGTCCG…ACCGGAGA
[1] = tested on: T1, Rep nickase domain of Muscovy duck circovirus
T1 sequence (residues 1-111, tag not shown): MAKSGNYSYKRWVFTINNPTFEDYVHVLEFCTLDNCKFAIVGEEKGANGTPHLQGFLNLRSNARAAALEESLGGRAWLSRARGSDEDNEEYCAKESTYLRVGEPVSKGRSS
Method: (§1)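 A pool of 90-nt single-stranded DNAs with seven random bases just before the constant AC of the nick site (name = the seven bases) was cut by 3 µM recombinant His6-SUMO-tagged Rep nickase domain (300 nM DNA, 50 mM HEPES pH 8.0, 50 mM NaCl, 1 mM MnCl2, 1 h, 37 °C, three replicates). Uncut DNA was amplified and sequenced.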

[2] = tested on: T2, Rep nickase domain of banana bunchy top virus
T2 sequence (residues 1-94, tag not shown): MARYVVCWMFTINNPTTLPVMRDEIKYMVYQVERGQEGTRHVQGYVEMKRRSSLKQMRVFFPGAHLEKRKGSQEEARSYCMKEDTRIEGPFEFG
Method: as §1

[3] = tested on: T3, Rep nickase domain of cabbage leaf curl virus
T3 sequence (residues 1-116, tag not shown): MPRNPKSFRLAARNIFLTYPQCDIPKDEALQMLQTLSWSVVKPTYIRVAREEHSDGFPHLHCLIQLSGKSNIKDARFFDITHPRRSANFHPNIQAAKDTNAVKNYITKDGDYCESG
Method: as §1

[4] = tested on: T4, Rep nickase domain of chickpea chlorotic dwarf virus
T4 sequence (residues 1-124, tag not shown): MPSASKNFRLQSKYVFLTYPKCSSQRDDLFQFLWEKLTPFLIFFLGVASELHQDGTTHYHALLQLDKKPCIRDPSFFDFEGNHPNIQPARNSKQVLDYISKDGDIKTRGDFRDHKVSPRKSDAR
Method: as §1

[5] = tested on: T5, Rep nickase domain of faba bean necrotic yellows virus
T5 sequence (residues 1-98, tag not shown): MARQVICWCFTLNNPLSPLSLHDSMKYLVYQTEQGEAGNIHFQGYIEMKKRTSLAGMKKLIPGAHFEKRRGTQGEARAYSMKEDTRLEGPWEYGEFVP
Method: as §1

[6] = tested on: T6, Rep nickase domain of maize striate mosaic virus
T6 sequence (residues 1-117, tag not shown): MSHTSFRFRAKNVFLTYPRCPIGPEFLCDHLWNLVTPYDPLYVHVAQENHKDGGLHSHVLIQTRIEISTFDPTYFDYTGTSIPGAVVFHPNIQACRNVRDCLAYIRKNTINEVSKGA
Method: as §1

[7] = tested on: T7, Rep nickase domain of porcine circovirus 2
T7 sequence (residues 2-116, tag not shown): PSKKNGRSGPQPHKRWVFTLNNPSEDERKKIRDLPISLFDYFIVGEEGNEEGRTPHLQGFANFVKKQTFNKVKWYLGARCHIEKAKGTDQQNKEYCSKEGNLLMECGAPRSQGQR
Method: as §1

[8] = tested on: T8, Rep nickase domain of tomato golden mosaic virus
T8 sequence (residues 1-124, tag not shown): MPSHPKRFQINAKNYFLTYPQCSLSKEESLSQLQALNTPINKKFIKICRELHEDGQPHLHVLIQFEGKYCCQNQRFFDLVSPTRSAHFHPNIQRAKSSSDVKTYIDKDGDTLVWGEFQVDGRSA
Method: as §1

[9] = tested on: T9, Rep nickase domain of tomato yellow leaf curl virus
T9 sequence (residues 1-136, tag not shown): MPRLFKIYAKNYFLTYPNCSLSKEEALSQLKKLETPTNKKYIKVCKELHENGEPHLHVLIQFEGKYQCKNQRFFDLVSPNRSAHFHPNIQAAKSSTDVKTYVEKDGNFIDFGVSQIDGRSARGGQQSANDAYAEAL
Method: as §1

[10] = tested on: T10, Rep nickase domain of wheat dwarf virus
T10 sequence (residues 1-137, tag not shown): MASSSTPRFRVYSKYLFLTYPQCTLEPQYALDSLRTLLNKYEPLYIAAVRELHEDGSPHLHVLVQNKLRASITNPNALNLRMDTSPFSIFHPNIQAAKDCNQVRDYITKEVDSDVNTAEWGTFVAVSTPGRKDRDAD
Method: as §1

Row | Sequence | uncleaved DNA left (log2) [1] | uncleaved DNA left (log2) [2] | uncleaved DNA left (log2) [3] | uncleaved DNA left (log2) [4] | uncleaved DNA left (log2) [5] | uncleaved DNA left (log2) [6] | uncleaved DNA left (log2) [7] | uncleaved DNA left (log2) [8] | uncleaved DNA left (log2) [9] | uncleaved DNA left (log2) [10]
1 | GTTCCAT | 0.0876 | 0.178 | 0.386 | 1.03 | 0.012 | 1.84 | 0.163 | 0.134 | 0.185 | 0.205
2 | GGCCTCA | 0.186 | 0.259 | 0.5 | 0.824 | 0.0588 | 1.36 | 0.223 | 0.161 | 0.225 | 0.221
3 | ATGCCGT | 0.0277 | -0.0679 | -0.521 | -0.812 | 0.0366 | -1.04 | -0.0378 | 0.0375 | -0.0212 | -0.133
4 | ATGTGCG | -0.000438 | -0.0615 | 0.0804 | 1.25 | 0.0142 | 1.24 | 0.103 | 0.000251 | -0.117 | -0.0261
5 | CCTCGCT | 0.0143 | 0.0408 | -0.415 | -0.997 | -0.0271 | -0.851 | 0.0747 | 0.0569 | -0.108 | -0.0966
6 | CCAACGG | 0.00525 | 0.137 | 0.524 | 1.31 | 0.128 | 1.56 | 0.218 | 0.166 | -0.0224 | 0.0457
7 | ACATGGT | -0.276 | 0.0158 | -0.289 | -0.556 | 0.017 | -0.673 | -0.5 | 0.0959 | 0.00706 | 0.0348
8 | TCTAACA | 0.115 | 0.0667 | -0.279 | -2.26 | 0.142 | -0.314 | -0.0326 | 0.0781 | 0.0751 | 0.0738
9 | CTTTATT | -3.25 | -3.34 | -0.787 | -3 | -0.307 | -0.682 | -3.91 | -0.705 | -0.0238 | -0.898
10 | ACATCTC | 0.0514 | -0.0867 | -0.432 | -0.478 | 0.00127 | -0.352 | 0.109 | 0.0276 | -0.0674 | 0.0474
11 | ACTCCGG | 0.000128 | 0.0188 | -0.061 | -0.025 | -0.0345 | -0.499 | 0.086 | 0.108 | -0.0847 | -0.0441
12 | TAGTTGG | -0.0781 | -0.104 | -0.316 | -0.329 | 0.00724 | -0.873 | -0.381 | -0.109 | -0.0263 | -0.0562
13 | TTGATGT | 0.146 | 0.0241 | -0.0942 | -0.335 | 0.0728 | -0.857 | 0.0411 | -0.0469 | 0.0276 | -0.00618
14 | GTCCGAG | -0.0102 | 0.062 | 0.79 | 1.72 | 0.0446 | 2.12 | 0.16 | -0.00301 | 0.0944 | 0.0885
15 | AACATGA | -0.0128 | -0.0627 | -0.298 | -0.406 | -0.0797 | -0.882 | 0.0336 | -0.0672 | -0.0266 | -0.0824
16 | GGTTTTT | -0.933 | -0.0811 | 0.428 | 0.735 | 0.00611 | 1.73 | -1.66 | 0.0354 | 0.0979 | 0.183
17 | TATAGAT | 0.0425 | 0.0167 | 0.107 | -0.683 | 0.035 | 1.04 | -0.178 | 0.00535 | -0.0196 | 0.0739
18 | ATATCCT | -1.26 | 0.0872 | -0.297 | -2.32 | 0.12 | -0.455 | -1.85 | -0.064 | -0.103 | -0.0706
19 | GTTTGGG | 0.0338 | -0.0797 | -0.466 | -0.415 | 0.0462 | -0.591 | 0.047 | 0.022 | 0.0641 | -0.121
20 | GTTTTGA | 0.0769 | 0.0838 | 0.402 | 0.952 | 0.0255 | 1.77 | 0.248 | 0.127 | 0.0932 | 0.123
21 | CTGTCTT | -2.31 | -0.927 | -0.103 | -1.95 | -0.75 | -0.393 | -3.33 | -0.0138 | 0.0475 | -0.0597
22 | TAACATG | 0.0676 | 0.039 | -0.538 | -1.54 | 0.0529 | -1.04 | 0.231 | 0.11 | 0.0599 | 0.099
23 | GGTTTCA | 0.0929 | 0.185 | 0.461 | 1.02 | 0.0797 | 1.85 | 0.161 | 0.115 | 0.239 | 0.23
24 | ACTCACG | -0.12 | 0.0269 | -0.807 | 0.398 | 0.0399 | -0.574 | 0.179 | -0.104 | -0.0682 | 0.00795
25 | CAACCTG | 0.0067 | -0.0149 | -0.212 | -0.567 | -0.0599 | 0.126 | -0.319 | -0.0389 | -0.206 | 0.0101
26 | CACCTTC | -0.083 | -0.0365 | -0.0786 | -0.902 | -0.0722 | -0.918 | -0.105 | -0.0465 | -0.206 | -0.00862
27 | CATAGTA | -0.103 | -0.113 | -0.128 | -1.85 | 0.0851 | -0.948 | -0.16 | -0.00165 | -0.0574 | -0.0179
28 | GGCAGGG | 0.0447 | 0.0549 | 0.227 | 0.659 | 0.0737 | 0.613 | 0.154 | 0.0525 | -0.013 | 0.101
29 | TATAGGG | 0.166 | 0.0104 | 0.183 | 0.321 | 0.0824 | -0.271 | 0.259 | 0.159 | 0.125 | 0.15

Reference: the supplement of paper PMC7826260
